Assay results: patent US20040127518A1, “Modulation of anxiety through blockade of anandamide hydrolysis” (priority 2002, published 2004)

Molecular target: CB1 receptor (Rattus norvegicus, UniProt P20272)
Chain of UniProt P20272 (P20272 whole entry): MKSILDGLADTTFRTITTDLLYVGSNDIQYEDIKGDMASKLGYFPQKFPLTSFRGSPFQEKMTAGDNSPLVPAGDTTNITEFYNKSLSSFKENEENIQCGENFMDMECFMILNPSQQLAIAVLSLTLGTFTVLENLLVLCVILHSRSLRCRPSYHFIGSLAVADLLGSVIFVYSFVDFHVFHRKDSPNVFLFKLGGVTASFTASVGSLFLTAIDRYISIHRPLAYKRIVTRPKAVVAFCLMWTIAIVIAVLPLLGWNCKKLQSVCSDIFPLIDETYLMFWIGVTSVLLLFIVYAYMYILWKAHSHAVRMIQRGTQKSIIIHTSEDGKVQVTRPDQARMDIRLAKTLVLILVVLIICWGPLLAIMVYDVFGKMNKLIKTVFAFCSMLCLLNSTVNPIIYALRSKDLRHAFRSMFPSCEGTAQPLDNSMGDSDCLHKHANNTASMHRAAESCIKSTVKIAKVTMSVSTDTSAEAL

Row | Compound | effect on binding of a high-affinity ligand to CB1 (in words) | CB1: maximal concentration of FAAH inhibitor tested (Table 2) [µM]
1 | NC(=O)c1cccc(-c2cccc(OC(=O)NC3CCCCC3)c2)c1 [UCM597, cyclohexylcarbamic acid 3′-carbamoylbiphenyl-3-yl ester] | no effect | –
2 | CCCCNC(=O)Oc1ccc(OCc2ccccc2)cc1 [UCM532, n-Butylcarbamic acid 4-benzyloxyphenyl ester] | no effect | >300
